The target in test [1] is T1, Flag‐tagged full‐length KSRP (in HEK293T cells) (human) (UniProt Q92945).
T1 sequence: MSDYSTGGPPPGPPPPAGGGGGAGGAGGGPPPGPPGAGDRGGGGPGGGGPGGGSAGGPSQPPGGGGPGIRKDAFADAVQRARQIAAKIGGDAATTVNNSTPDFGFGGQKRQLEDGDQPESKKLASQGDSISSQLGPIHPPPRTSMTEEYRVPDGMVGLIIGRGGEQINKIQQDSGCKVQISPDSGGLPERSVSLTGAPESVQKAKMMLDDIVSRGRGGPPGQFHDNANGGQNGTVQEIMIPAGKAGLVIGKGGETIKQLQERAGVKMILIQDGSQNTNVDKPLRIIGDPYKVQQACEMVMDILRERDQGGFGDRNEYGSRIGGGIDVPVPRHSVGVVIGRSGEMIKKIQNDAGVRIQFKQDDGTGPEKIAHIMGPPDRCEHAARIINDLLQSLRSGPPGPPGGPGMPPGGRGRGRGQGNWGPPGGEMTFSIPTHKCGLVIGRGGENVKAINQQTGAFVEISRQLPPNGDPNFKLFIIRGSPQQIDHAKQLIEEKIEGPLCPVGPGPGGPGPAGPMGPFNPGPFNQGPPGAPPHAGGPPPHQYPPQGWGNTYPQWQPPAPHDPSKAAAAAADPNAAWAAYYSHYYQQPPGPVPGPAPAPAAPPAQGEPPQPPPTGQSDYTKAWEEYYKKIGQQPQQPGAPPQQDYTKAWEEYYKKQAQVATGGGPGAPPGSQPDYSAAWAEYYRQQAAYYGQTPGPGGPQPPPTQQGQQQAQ
The test is described as follows: co-IP; HEK293T cells cotransfected with a full-length partner and tagged deletion mutants or segments of the other (Figure 4E, 4F); antibodies to Myc and Flag; western blot. Background: In western blotting, separated proteins are transferred to a membrane and probed.

In test [2] the target is T2, Flag‐tagged KSRP (in Raw264.7 cells) (human) (UniProt Q92945).
T2 sequence: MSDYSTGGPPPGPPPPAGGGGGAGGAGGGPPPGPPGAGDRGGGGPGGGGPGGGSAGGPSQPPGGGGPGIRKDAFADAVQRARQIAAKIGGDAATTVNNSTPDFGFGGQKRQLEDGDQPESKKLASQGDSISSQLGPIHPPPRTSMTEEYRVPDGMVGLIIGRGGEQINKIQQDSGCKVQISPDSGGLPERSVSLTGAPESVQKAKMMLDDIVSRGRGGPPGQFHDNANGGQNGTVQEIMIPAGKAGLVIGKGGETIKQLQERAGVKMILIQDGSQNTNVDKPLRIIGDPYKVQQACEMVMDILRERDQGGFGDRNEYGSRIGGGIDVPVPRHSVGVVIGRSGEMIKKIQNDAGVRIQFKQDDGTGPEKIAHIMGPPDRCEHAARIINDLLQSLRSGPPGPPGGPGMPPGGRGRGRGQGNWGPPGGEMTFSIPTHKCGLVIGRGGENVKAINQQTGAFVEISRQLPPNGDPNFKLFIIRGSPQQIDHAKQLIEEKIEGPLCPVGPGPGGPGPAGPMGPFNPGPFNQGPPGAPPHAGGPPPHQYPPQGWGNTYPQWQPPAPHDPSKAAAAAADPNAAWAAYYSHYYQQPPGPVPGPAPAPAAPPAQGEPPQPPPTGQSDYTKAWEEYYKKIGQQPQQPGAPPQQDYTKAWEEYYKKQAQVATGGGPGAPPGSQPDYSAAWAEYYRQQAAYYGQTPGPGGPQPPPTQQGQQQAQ
In words: co-IP; Raw264.7 cells cotransfected with Myc-FBXW2 and Flag-KSRP; protein extracts; antibodies to Myc and Flag; western blot.

The target of test [3] is T1, Flag‐tagged full‐length KSRP (in HEK293T cells) (human). In words: co-IP; HEK293T cells cotransfected with Flag-KSRP and V5-FBXW2 in combinations with Myc-FBXW2 constructs P1, P2, P3; KSRP precipitated with anti-Flag antibody, V5-FBXW2 detected by immunoblot.
Test [4] has as its target T3, F‐box/WD Repeat‐Containing Protein 2 (FBXW2), endogenous in mouse macrophages (mouse (endogenous in peritoneal macrophages and BMDMs)) (UniProt Q60584).
T3 sequence: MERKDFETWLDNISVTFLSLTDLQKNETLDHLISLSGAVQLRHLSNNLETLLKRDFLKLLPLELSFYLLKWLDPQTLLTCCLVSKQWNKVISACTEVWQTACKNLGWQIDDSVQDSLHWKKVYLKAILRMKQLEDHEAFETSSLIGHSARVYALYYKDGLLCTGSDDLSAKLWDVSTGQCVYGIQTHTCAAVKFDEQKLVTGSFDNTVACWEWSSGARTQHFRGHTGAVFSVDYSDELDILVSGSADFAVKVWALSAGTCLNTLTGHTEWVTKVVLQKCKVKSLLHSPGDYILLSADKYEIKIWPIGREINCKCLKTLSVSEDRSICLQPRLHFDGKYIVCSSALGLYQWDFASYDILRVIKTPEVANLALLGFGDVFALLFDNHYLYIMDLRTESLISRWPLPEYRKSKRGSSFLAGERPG
The test is described as follows: co-IP; endogenous FBXW2 and KSRP in mouse BMDMs, with and without LPS (1 µg mL^-1) treatment.

The source of these data is paper PMC7578860.

These are yes or no findings as the source states them, for the method shown. Binding seen in cells or lysates may run through a third protein. Some binding calls cover weakened binding; strength is not graded here. For part of these data: Sequences can lack the tags named with a protein.

B1: FBXW2 (P3), C‐terminal WD40 repeat domain of FBXW2, Myc‐tagged (domain or fragment, UniProt Q9UKT8 307-454)
chain: GREINCKCLKTLSVSEDRSICLQPRLHFDGKYIVCSSALGLYQWDFASYDILRVIKTPEIANLALLGFGDIFALLFDNRYLYIMDLRTESLISRWPLPEYRKSKRGSSFLAGEASWLNGLDGHNDTGLVFATSMPDHSIHLVLWKEHG
For B1, the binding result in test [1] is “binds”.

B2: FBXW2 (P1), F‐box of FBXW2, Myc‐tagged (domain or fragment, UniProt Q9UKT8 1-138)
chain: MERKDFETWLDNISVTFLSLTDLQKNETLDHLISLSGAVQLRHLSNNLETLLKRDFLKLLPLELSFYLLKWLDPQTLLTCCLVSKQWNKVISACTEVWQTACKNLGWQIDDSVQDALHWKKVYLKAILRMKQLEDHEA
Turning to B2, in test [1], the binding entry is given as “no binding”.

B3: Myc‐tagged FBXW2 (in Raw264.7 cells) (protein, UniProt Q9UKT8 1-454)
chain: MERKDFETWLDNISVTFLSLTDLQKNETLDHLISLSGAVQLRHLSNNLETLLKRDFLKLLPLELSFYLLKWLDPQTLLTCCLVSKQWNKVISACTEVWQTACKNLGWQIDDSVQDALHWKKVYLKAILRMKQLEDHEAFETSSLIGHSARVYALYYKDGLLCTGSDDLSAKLWDVSTGQCVYGIQTHTCAAVKFDEQKLVTGSFDNTVACWEWSSGARTQHFRGHTGAVFSVDYNDELDILVSGSADFTVKVWALSAGTCLNTLTGHTEWVTKVVLQKCKVKSLLHSPGDYILLSADKYEIKIWPIGREINCKCLKTLSVSEDRSICLQPRLHFDGKYIVCSSALGLYQWDFASYDILRVIKTPEIANLALLGFGDIFALLFDNRYLYIMDLRTESLISRWPLPEYRKSKRGSSFLAGEASWLNGLDGHNDTGLVFATSMPDHSIHLVLWKEHG
Consider B3, for which the binding result in test [2] is “binds”.

B4: V5‐FBXW2 (in HEK293T cells) (protein, UniProt Q9UKT8 1-454)
chain: MERKDFETWLDNISVTFLSLTDLQKNETLDHLISLSGAVQLRHLSNNLETLLKRDFLKLLPLELSFYLLKWLDPQTLLTCCLVSKQWNKVISACTEVWQTACKNLGWQIDDSVQDALHWKKVYLKAILRMKQLEDHEAFETSSLIGHSARVYALYYKDGLLCTGSDDLSAKLWDVSTGQCVYGIQTHTCAAVKFDEQKLVTGSFDNTVACWEWSSGARTQHFRGHTGAVFSVDYNDELDILVSGSADFTVKVWALSAGTCLNTLTGHTEWVTKVVLQKCKVKSLLHSPGDYILLSADKYEIKIWPIGREINCKCLKTLSVSEDRSICLQPRLHFDGKYIVCSSALGLYQWDFASYDILRVIKTPEIANLALLGFGDIFALLFDNRYLYIMDLRTESLISRWPLPEYRKSKRGSSFLAGEASWLNGLDGHNDTGLVFATSMPDHSIHLVLWKEHG
As for B4, the binding entry in test [3] is “binds”.

B5: KH‐type splicing regulatory protein (KSRP), endogenous in mouse macrophages (protein, UniProt Q3U0V1 1-748)
chain: MSDYNTGGPPPGPPPPAGGGGGAAGAGGGPPPGPPGAGDRGGGGPGGGGPGGGGASGGPSQPPGGGGPGIRKDAFADAVQRARQIAAKIGGDAATTVNNNTPDFGFGGQKRQLEDGDQPDSKKLASQGDSIGSQLGPIHPPPRTSMTEEYRVPDGMVGLIIGRGGEQINKIQQDSGCKVQISPDSGGLPERSVSLTGAPESVQKAKMMLDDIVSRGRGGPPGQFHDNANGGQNGTVQEIMIPAGKAGLVIGKGGETIKQLQERAGVKMILIQDGSQNTNVDKPLRIIGDPYKVQQACEMVMDILRERDQGGFGDRNEYGSRVGGGIDVPVPRHSVGVVIGRSGEMIKKIQNDAGVRIQFKQDDGTGPEKIAHIMGPPDRCEHAARIINDLLQSLRSGPPGPPGAPGMPPGGRGRGRGQGNWGPPGGEMTFSIPTHKCGLVIGRGGENVKAINQQTGAFVEISRQLPPNGDPNFKLFVIRGSPQQIDHAKQLIEEKIEGPLCPVGPGPGGPGPAGPMGPFNPGPFNQGPPGAPPHAGGPPPHQYPPQGWGNTYPQWQPPAPHDPNKAAAAATDPNAAWAAYYSHYYQQPPGPVPGPAPAPAAPPAQGEPPQPPPTGQSDYTKAWEEYYKKIGQQPQQPGAPPQQDYTKAWEEYYKKQAQVATGGGPGAPPGSQPDYSAAWAEYYRQQAAYYGQTPGPGGPQPPPTQQGQQQASGNCHPPPPPFSFQPPATVHPALVGSAGNPFPCGVCP
B5: the binding entry in test [4] is “binds”.

B6: FBXW2 (P2), N‐terminal WD40 repeat domain of FBXW2, Myc‐tagged (domain or fragment, UniProt Q9UKT8 139-306)
chain: FETSSLIGHSARVYALYYKDGLLCTGSDDLSAKLWDVSTGQCVYGIQTHTCAAVKFDEQKLVTGSFDNTVACWEWSSGARTQHFRGHTGAVFSVDYNDELDILVSGSADFTVKVWALSAGTCLNTLTGHTEWVTKVVLQKCKVKSLLHSPGDYILLSADKYEIKIWPI
B6: the binding entry in test [1] is reported as “no binding”.
